According to the supplement of paper PMC10126150:
Values marked as one replicate rest on one cluster of the flow cell; about a third of the high ones do not repeat.

These sequences were tested on ATP (assay: switch fluorescence ratio, 500 uM ATP over buffer (Cy3 cluster intensity, sum of 5 cycles each) (fold (ratio)); higher = stronger signal-on switching upon ATP binding; sequences stand for … in TCGTCGGCAGCGTCAGATGTGTATAAGAGACAGTTTTTTTTTTTTTTTTTTTTTTTTT…TC). Conditions: aptamer strand: ATP DNA aptamer (quencher-CACCTGGGGGAGTATTGCGGAGGAAGG + anchor), 100 nM annealed; ATP concentration: 500 uM; one replicate.
Method in brief: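 Imaging in selection buffer was followed by imaging after 15 min with 500 uM ATP at 22 °C, for Cy3-labelled switching-strand clusters annealed to 100 nM quencher-labelled ATP aptamer on a modified Illumina MiSeq flow-cell. Five of these buffer/ATP cycles ran, separated by NaOH stripping and re-annealing. The fluorescence ratio per cluster is summed target-cycle over summed buffer-cycle Cy3 intensity, averaged per switch-domain sequence; clusters outside 100-1000 RFU were removed.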
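Note: ATP exposure 15 min at 22 °C before imaging.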

Row | Sequence | switch fluorescence ratio
1 | AGGGCCCAAG | 0.963
2 | AGGGCCTCGG | 0.964
3 | AGGGCGATA | 1.08
4 | AGGGCGCCA | 1.01
5 | AGGGCGGCGC | 0.96
6 | AGGGCTGAGG | 1.03
7 | AGGGCTTATC | 1.05
8 | AGGGCTTCCA | 1.03
9 | AGGGGAAACG | 0.954
10 | AGGGGACCTC | 1.03
11 | AGGGGAGAAA | 0.995
12 | AGGGGATGCC | 1.01
13 | AGGGGATTG | 0.975
14 | AGGGGCAACA | 1.05
15 | AGGGGCAGGC | 0.769
16 | AGGGGCATGA | 0.987
17 | AGGGGGC | 1.04
18 | AGGGGGCCGG | 1.04
19 | AGGGGGGTGC | 1.03
20 | AGGGGGTCGC | 1.04
21 | AGGGGTAGAC | 0.956
22 | AGGGGTCTGC | 0.95
23 | AGGGTAAAT | 1.01
24 | AGGGTCAGAC | 1.01
25 | AGGGTCGCAT | 0.979
26 | AGGGTGCATA | 1.02

Row | Sequence | switch fluorescence ratio
27 | AGGGTGCCGA | 1.04
28 | AGGGTGGACC | 1.02
29 | AGGGTGGCTC | 0.962
30 | AGGGTTCTTA | 0.982
31 | AGGGTTGAAT | 1
32 | AGGGTTGACG | 0.993
33 | AGGGTTGGT | 1.01
34 | AGGGTTTAAG | 0.973
35 | AGGTAATTAA | 1.03
36 | AGGTACCAAA | 1.03
37 | AGGTACGACA | 1.02
38 | AGGTACGCAG | 1
39 | AGGTACTACG | 1.05
40 | AGGTAGCAG | 0.938
41 | AGGTAGCGCG | 0.992
42 | AGGTAGGACC | 1.06
43 | AGGTAGTGCT | 1.02
44 | AGGTATATGT | 1.01
45 | AGGTATTACT | 1.02
46 | AGGTCAAAGC | 0.986
47 | AGGTCCACGT | 0.889
48 | AGGTCCAGAT | 1.02
49 | AGGTCCGTGC | 0.984
50 | AGGTCGAAGG | 1
51 | AGGTCGAGAG | 1
52 | AGGTCGATAC | 1.97

Row | Sequence | switch fluorescence ratio
53 | AGGTCGCAGC | 0.959
54 | AGGTCGGCGA | 1.03
55 | AGGTCTGACA | 0.985
56 | AGGTCTGAGA | 1.02
57 | AGGTGAAGAA | 1
58 | AGGTGACGGC | 1.03
59 | AGGTGCATGT | 1.03
60 | AGGTGCTGAT | 0.998
61 | AGGTGGAGTC | 0.985
62 | AGGTGTATT | 1.03
63 | AGGTTAGTTC | 1.29
64 | AGGTTATGGA | 0.967
65 | AGGTTCAAGA | 1.02
66 | AGGTTCAAGT | 0.996
67 | AGGTTCCGTA | 1.02
68 | AGGTTCGGGT | 0.949
69 | AGGTTCTAAA | 0.997
70 | AGGTTCTAAG | 0.972
71 | AGGTTCTAGA | 1
72 | AGGTTTACGC | 0.978
73 | AGGTTTATCT | 1.03
74 | AGGTTTATGG | 1.01
75 | AGGTTTGG | 0.967
76 | AGGTTTTACA | 0.965
77 | AGTAAAAACT | 1.03
78 | AGTAAAAGAT | 0.992

Row | Sequence | switch fluorescence ratio
79 | AGTAAATAGC | 1.01
80 | AGTAAGCCTA | 1
81 | AGTAAGTTAT | 1.01
82 | AGTAAGTTC | 1.07
83 | AGTAATTCGA | 1.06
84 | AGTACAGAGG | 0.987
85 | AGTACAGGAT | 1.01
86 | AGTACGGATC | 1
87 | AGTACGGATG | 0.983
88 | AGTACTACGA | 1.05
89 | AGTACTGACA | 1.24
90 | AGTACTGTTC | 1.04
91 | AGTACTTCCG | 1
92 | AGTACTTCGC | 1.12
93 | AGTACTTTTA | 1.04
94 | AGTACTTTTG | 1.03
95 | AGTAGAAAGC | 1
96 | AGTAGATTCA | 0.971
97 | AGTAGATTCT | 0.964
98 | AGTAGCCTG | 1.05
99 | AGTAGCTTCA | 1.16
100 | AGTAGCTTGA | 1.02
101 | AGTAGGATAC | 0.97
102 | AGTAGGCCAG | 0.961
103 | AGTAGGCCGG | 1.03
104 | AGTAGTATGT | 0.992

Row | Sequence | switch fluorescence ratio
105 | AGTAGTGGCC | 1.07
106 | AGTATAAACG | 1.01
107 | AGTATAATGC | 1.02
108 | AGTATAGAGG | 1.02
109 | AGTATATTAG | 0.955
110 | AGTATCAGGT | 1.01
111 | AGTATGGGTG | 0.999
112 | AGTATGTCCC | 0.976
113 | AGTATGTCTG | 1.12
114 | AGTATTTATG | 0.949
115 | AGTCAACTGT | 1.01
116 | AGTCAACTTA | 1.02
117 | AGTCACGGAG | 0.982
118 | AGTCACTCAT | 0.987
119 | AGTCACTCGT | 1.01
120 | AGTCAGACTT | 0.988
121 | AGTCAGCGAG | 1.05
122 | AGTCAGTACA | 1
123 | AGTCATATAC | 2.67
124 | AGTCATGCCT | 1.01
125 | AGTCCACGA | 1.08
126 | AGTCCATCTA | 0.987
127 | AGTCCATGTC | 1.04
128 | AGTCCGCGCG | 1.06
129 | AGTCCTAGGA | 1.01
130 | AGTCCTGTCG | 0.94

Row | Sequence | switch fluorescence ratio
131 | AGTCGAGGC | 1.04
132 | AGTCGCCGAG | 0.956
133 | AGTCGGTATG | 0.961
134 | AGTCGGTTGG | 1.03
135 | AGTCGGTTTC | 0.941
136 | AGTCGTTGAC | 0.999
137 | AGTCTAGTCA | 0.996
138 | AGTCTCAGAA | 0.932
139 | AGTCTCATTA | 1.02
140 | AGTCTGGACA | 1.02
141 | AGTCTGTTGG | 1.02
142 | AGTCTTACGG | 0.971
143 | AGTCTTAGCT | 0.992
144 | AGTCTTGGG | 1.04
145 | AGTCTTTAGC | 1
146 | AGTGAAATG | 1.03
147 | AGTGAAGCTC | 0.987
148 | AGTGAAGTAC | 1.24
149 | AGTGAATTTC | 0.96
150 | AGTGACCGAT | 1.03
151 | AGTGAGGGT | 1
152 | AGTGAGTAG | 0.987
153 | AGTGATATGT | 0.982
154 | AGTGATGG | 1.03
155 | AGTGATTATT | 1
156 | AGTGCAAGTT | 0.949

Row | Sequence | switch fluorescence ratio
157 | AGTGCCAGTC | 1.04
158 | AGTGCTATTG | 0.985
159 | AGTGCTTGGT | 1.05
160 | AGTGGAACGG | 1
161 | AGTGGACACC | 0.976
162 | AGTGGCAGGC | 1
163 | AGTGGCTAGA | 0.98
164 | AGTGGGAAA | 1.01
165 | AGTGGGTAGT | 1.02
166 | AGTGGTATAC | 1.01
167 | AGTGGTATTC | 0.942
168 | AGTGTACGGT | 1.04
169 | AGTGTCAAAA | 0.989
170 | AGTGTCCCGT | 1.02
171 | AGTGTCGTAA | 1.03
172 | AGTGTCTCC | 1.03
173 | AGTGTGATGG | 0.993
174 | AGTGTGGTGT | 1.03
175 | AGTGTTAAGT | 0.989
176 | AGTGTTTTAC | 1
177 | AGTTAACAAG | 1.02
178 | AGTTACATGA | 1.01
179 | AGTTACGGA | 1.03
180 | AGTTAGAATC | 0.992
181 | AGTTAGCTCG | 1.03
182 | AGTTAGGAT | 0.981

Row | Sequence | switch fluorescence ratio
183 | AGTTATAGTC | 1
184 | AGTTATCTGG | 0.974
185 | AGTTATGGTC | 0.999
186 | AGTTATTCTC | 1.44
187 | AGTTCCAAT | 0.982
188 | AGTTCCAGTT | 0.979
189 | AGTTCGGGCC | 0.985
190 | AGTTCTAATA | 1
191 | AGTTCTACA | 1.05
192 | AGTTCTTTGG | 0.998
193 | AGTTGAATGA | 1.06
194 | AGTTGACTCC | 1.13
195 | AGTTGAGAGT | 1.02
196 | AGTTGAGTTG | 1.09
197 | AGTTGCGTGG | 0.976
198 | AGTTGCTGGG | 0.977
199 | AGTTGGACA | 0.983
200 | AGTTGGAGGT | 0.958
201 | AGTTGGAGTA | 0.974
